# Measurements taken from the supplement of paper PMC11417369.
# The list shows a part of the results.
# Tested on: PfHDP1 homeodomain (GST-tagged)
# Experiment: gcPBM binding intensity (ln(normalized median fluorescence intensity)); higher = stronger DNA binding
# Outline: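 The highest Masliner-normalised natural-log median intensity across replicate spots of either probe orientation is reported as binding intensity. GST-tagged P. falciparum DNA-binding domains expressed in E. coli were applied for 1 h to an Agilent 4 × 180k array of primer-extended double-stranded 36-bp intergenic genomic probes plus negative controls, and bound protein was detected with Alexa488 anti-GST antibody and scanned at 488 nm.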
row,Sequence,gcPBM binding intensity (ln)
1,TATACATGTTCAATTTGTACATATATAAATATATAT [XGTACX_site3554],6.46
2,ATTAAGGAAAAATTATGTACACAAAAACATATAACA [XGTACX_site2901],7.51
3,TTTTTTTTTTGATGTTGTACATATATATTATATATA [XGTACX_site6377],6.58
4,TTTTTTTTTTTTTTTTGTACATATTTTTAAACTATA [XGTACX_site2897],6.24
5,AGATATATGGACGACTCACACATTTAAATTCATTCA [CACACA_site6047],6.59
6,CTTTCATATGTTTTAACACACACGCATATATTATAT [CACACA_site8615],7.38
7,TTTTTTTTTTTGATTTGTACACAAAAAAAATATATG [XGTACX_site4547],6.24
8,ATCTATGATATATACACACACATGTATAAATAAATA [CACACA_site7012],6.51
9,TAATTTTTTTTTCTTGTACACACTATTTTATAATTT [CACACA_site4078],6.68
10,ATTTATTTGTTTGTTTTTTTTACGATTTTTATTTTT [CACACA_negctrl_site1138],6.7
11,CGTATTTATATAATTACACACCATATTTTAATTATT [CACACA_site5960],6.66
12,ATAAACAATTAACAAACATGCAAATTTTAAATGTGT [TGCATGCA_site919],6.42
13,TATCGAGCACGGCGTGTGGAGTTACAAAGAGGAGAA [CACACA_negctrl_site40],6.86
14,AAATGTATAATATTTTCACACACAAGAAAAAAGAAA [CACACA_site9195],6.57
15,GCCAATAAAGATGTGGTGCATTATATATATATATAT,10.7
16,TAAAAATAGTATACAACACACGAGGGAAAATAAAGT [CACACA_site3837],7.68
17,TAAACATACATATACACACACACACCCACACCCACA [CACACA_site492],6.77
18,TGTCCTTATGGGCACACACACATATAAGAAATTTAA [CACACA_site3187],6.53
19,CTTCTTATTTTCTAATGTACGTACAAATCATTTATA [XGTACX_site2176],7.28
20,ATATTTATATATATGTGTACATATAGAAACATAAAA [XGTACX_site4355],6.38
21,TTTTTTTTTTTAATTTGTACGAATCTTTTTATTTTA [XGTACX_site4516],6.25
22,AGAAATGAAATATACACACATACATATATACATATA [CACACA_site4033],6.5

row,Sequence,gcPBM binding intensity (ln)
1,ACCCTCATATTATAGACACACACAAAAAAAATAAAA [CACACA_site7941],6.66
2,ATTAATAATGAGTTATGTACATACATATTTTAAGAT [XGTACX_site7543],6.75
3,TAAATACACCCTAGACGTACATAAAAATTTAGTATG [XGTACX_site2512],6.37
4,CAAAATATATATACCACACACACATACCTCTATTTG [CACACA_site1853],6.78
5,ATATATTTTTTCTTAACACACATATATAAAATAAAA [CACACA_site3500],6.42
6,CACGCGAACATACATACACACACATATATATATATG [CACACA_site7951],7.18
7,TATATATATATATACACACACACACCGATATATATA [CACACA_site8813],9.29
8,TATATAAAAAAACAAAGTACATGTTCTTAATCATTT [XGTACX_site8446],6.31
9,AAATGAACAAGTGGCACACACACATCATAACTAATT [CACACA_site5730],6.52
10,ATAATATAAATATGCACACAAATTATTACCCAAAAA [CACACA_site2524],9.6
11,GTTATATTCCTACAGAGTACATAAAAATGCACATCA [XGTACX_site1948],9.23
12,AAATATAATATATGCACACATACATACAGATATATA [CACACA_site4235],9.5
13,ATAAATATAGGACACACACACATATTATATATATAT [CACACA_site5658],8.53
14,TATTTCATGATACAATGTACATGTATATATGATACC [XGTACX_site5057],6.64
15,AATAATATATATTACACACGCATCGTTCATTTATTT [CACACA_site2391],7.15
16,TTGCCCATTTAATTAACACACAAATGTTTATATTCT [CACACA_site6488],6.86
17,TTTGAAATAAGCAAATGTACATTATTATTAAATATA [XGTACX_site6158],6.48
18,TTCACATACAGAAACACACACATATATATAAATTAA [CACACA_site3705],6.68
19,TGTATGATAACTATAGTGCATTTGGTAATTTTTCCA,8.53
20,TCCATAAAAATGGATACACACACATAATATATATAT [CACACA_site9207],8.28
21,TATAATATAAGGATCACACACAAACACCCATATATA [CACACA_site4468],6.86
22,TTAATAACAAAATAAACACACATATATAAATACCCA [CACACA_site4960],6.83

row,Sequence,gcPBM binding intensity (ln)
1,CATACATACATACATACACACATACCTATATTTATA [CACACA_site6769],7.48
2,ATATATACATATATTACACACTTCTTATTCTAAGAA [CACACA_site3022],6.48
3,CTAGCAAATACATACACACACACACCGATACAGATA [CACACA_site5853],6.67
4,AACGCGAACAATTTATAGATAACTTTTAATTATTAT [GTGCAC_negctrl_site179],5.97
5,ATATATATATTTGTGTGTACATATTAATTTGTATGA [XGTACX_site4047],8.08
6,ATGGTATATCCAAATAAACACACGTAAATACATAAA [CACACA_site1682],6.83
7,ATACATTTTTGTAAAAGTACATATACATGCCCCCTT [XGTACX_site1367],7.68
8,AATATATATATAGGATGTACACATAATTCAAATACA [XGTACX_site6368],6.92
9,TATATATATATAAACTGTACTATTTTATGTTAAAAG [XGTACX_site3630],9.03
10,ATTTAATACAAATACACACACAAATATATACATATA [CACACA_site3747],6.87
11,AGATATTAAAACGTTACACACATTTATATATCTTCT [CACACA_site908],6.48
12,GTAAGTTTGAATACACGTACAAATTTATTAAAGTCC [XGTACX_site6722],6.84
13,TTCCAAAATTGCATTTGTACCCAAAAAATGTATACG [XGTACX_site7680],6.56
14,ATATTATTAATTTATAGTACTCATTTTTTTTTTTTT [XGTACX_site3536],6.4
15,GCTTTTTATTTTTACCGTACATTATATATGTATATA [XGTACX_site808],7.64
16,ATCAGTCGGCAGGACAGTACACAGTAGCCAGGAAAT [XGTACX_site2003],6.32
17,TTTTGGCTGATCAGATTTAACAAAAAAAAAAAAAAA [CACACA_negctrl_site671],6.06
18,CAAATGTAGAAAATGTGTACATAAAAAAAAAAAAAA [XGTACX_site8276],6.64
19,AGTCAATTTTGTGTGTCAACATTTATATAAAGAATG [TGCATGCA_negctrl_site400],6.47
20,TGTGAAAATTATGGGGCATGCAATACTTTAAAAATA [TGCATGCA_site653],6.75
21,CAAATATATATTTTCTGTACAAATACAATTAATACT [XGTACX_site2694],6.45
22,CCTTCAATTTACATAACACACATTTAACCATAATAA [CACACA_site2394],6.68

row,Sequence,gcPBM binding intensity (ln)
1,TTTAGCCAATTTTTAAAGTTTAAAAAAGAAAAAAGA [CACACA_negctrl_site118],6.27
2,TATTAAAAATACATATGTACTCATAGCATAAAACAT [XGTACX_site8686],6.72
3,TTATATTTTCAGAATAGTACACATATATACATATAT [XGTACX_site2519],6.46
4,AAAAATTCTTGGCGCACACACTTTAAAAATTAAAAA [CACACA_site4498],7.15
5,TTATAAAAGAAAAAAAAAAAAAAAAAAAAAAAAAAA [CACACA_negctrl_site1006],6.11
6,GATCATTTAAAATAAGTAATATTTTTTTTACTTTTG [TGCATGCA_negctrl_site602],5.9
7,ACTAATTACTATAAAACACACATATATATATATATA [CACACA_site2591],9.48
8,TTAGTCGAATGATGTACACACATACAAAACATTTAT [CACACA_site6076],6.49
9,AAAAAAAAAAAAAAAAAAAAAAAAAAAAGAAAAAAG [GTGCAC_negctrl_site583],7.19
10,AGAAAATATTTTGGTTGTACAGGCGATTTATATGTT [XGTACX_site7253],6.58
11,TATATATATATATATACACACATTTTTAATGATAAA [CACACA_site2695],9.36
12,TATAAATACAATTCACAAGAGATCATGTATCAAACC [CACACA_negctrl_site1219],6.04
13,TTTCTAGTTACAAGAGTGCATAATATATAAAAATAA [GTGCAC_site9874],8.74
14,ATATAATAAATATGTTGTACTATAAAAAATAGCCAT [XGTACX_site4710],6.12
15,CATATATGTTATATTTAACACACATATAAGGTACAT [CACACA_site8105],6.51
16,ATCTCTGTAAAGATCACACATATATTTTTGTTATAT [CACACA_site5094],6.51
17,TTTATAATTTATATCACACATATATCTGTAATAAAT [CACACA_site5048],6.44
18,TATATATTATATATATGTACATATTGTTGTGTATAT [XGTACX_site767],7.15
19,CAGCTCTTAAAAATTACACACATATACACATATATA [CACACA_site9073],6.62
20,ATAAAAATAAAAAAAACACACATACCTTATTTTTGT [CACACA_site5452],6.63
21,GTGCATAAATCATACACACACACATATATATATATA [CACACA_site2423],9.32
22,AAATATAAATGGTAATACACATACACACACACATAC [XGTACX_negctrl_site459],7.38
